Measurements taken from paper PMC4336329 (PLoS ONE, 2015).
In all, about 310,000 compounds went through this assay and about 14,000 (4.5%) showed an effect of 50% or more. Effects have a minus sign here. The list shows a part of the results.

What follows are molecules tested against human ether-à-go-go-related gene (hERG) potassium channel (human, UniProt Q12809) (assay: primary screen, population patch clamp on CHO cells stably expressing hERG).
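Also: peak tail current of the secondary pulse compared with the same well before compound.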

Chain of human ether-à-go-go-related gene (hERG) potassium channel (Q12809 whole entry, looked up): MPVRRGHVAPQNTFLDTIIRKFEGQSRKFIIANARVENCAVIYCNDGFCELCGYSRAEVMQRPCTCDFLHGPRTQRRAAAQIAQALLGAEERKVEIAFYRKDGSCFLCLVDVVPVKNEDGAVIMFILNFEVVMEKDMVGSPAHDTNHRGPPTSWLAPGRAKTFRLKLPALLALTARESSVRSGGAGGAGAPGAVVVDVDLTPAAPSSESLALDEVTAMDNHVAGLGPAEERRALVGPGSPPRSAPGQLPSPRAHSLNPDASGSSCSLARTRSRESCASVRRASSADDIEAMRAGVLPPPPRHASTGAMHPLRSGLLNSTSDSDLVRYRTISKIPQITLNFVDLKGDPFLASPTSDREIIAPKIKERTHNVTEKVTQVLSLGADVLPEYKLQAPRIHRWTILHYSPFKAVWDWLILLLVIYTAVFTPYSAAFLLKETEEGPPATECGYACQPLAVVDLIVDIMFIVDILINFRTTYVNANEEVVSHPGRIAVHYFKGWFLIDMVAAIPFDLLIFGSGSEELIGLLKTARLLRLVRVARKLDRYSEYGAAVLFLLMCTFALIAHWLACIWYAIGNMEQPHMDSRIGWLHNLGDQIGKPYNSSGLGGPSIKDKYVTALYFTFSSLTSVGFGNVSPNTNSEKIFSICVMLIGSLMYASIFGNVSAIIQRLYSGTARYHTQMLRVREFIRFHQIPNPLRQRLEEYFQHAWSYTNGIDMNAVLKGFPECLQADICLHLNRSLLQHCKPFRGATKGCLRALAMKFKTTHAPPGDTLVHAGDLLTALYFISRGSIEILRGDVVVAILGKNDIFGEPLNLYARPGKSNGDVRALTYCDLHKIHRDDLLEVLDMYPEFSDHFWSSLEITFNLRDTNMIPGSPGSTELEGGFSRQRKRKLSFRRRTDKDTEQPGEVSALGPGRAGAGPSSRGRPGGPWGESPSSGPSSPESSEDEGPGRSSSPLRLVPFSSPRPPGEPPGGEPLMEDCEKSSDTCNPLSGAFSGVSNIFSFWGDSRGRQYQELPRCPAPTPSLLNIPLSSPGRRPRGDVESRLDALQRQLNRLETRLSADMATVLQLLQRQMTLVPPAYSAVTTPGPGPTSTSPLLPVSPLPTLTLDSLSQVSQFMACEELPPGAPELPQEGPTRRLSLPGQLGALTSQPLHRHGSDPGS

Question: Which “hERG current change (%, negative = inhibition) at 10uM” value does the source give for `CCN(CC(=O)Nc1ccc(C)c(F)c1)CC(=O)NC(C)C` here?
Answer: The value was 4.17%.

Question: `O=C(CCC(=O)N1CCN(S(=O)(=O)c2ccccc2)CC1)c1cccs1` was tested. Which “hERG current change (%, negative = inhibition) at 10uM” value did it give?
Answer: The value was -6.39%.

Question: With `COc1ccccc1C(c1nnnn1Cc1ccccc1)N1CCN(C2CCCC2)CC1.Cl` (stereo not shown) as the molecule, how does the “hERG current change (%, negative = inhibition) at 10uM” value read?
Answer: Its value is -35.5%.

Question: With `COc1ccc(Oc2c(C=O)c3ccccc3n2C)cc1` as the molecule, how does the “hERG current change (%, negative = inhibition) at 10uM” value read?
Answer: The value was -7.74%.

Question: Which “hERG current change (%, negative = inhibition) at 10uM” value does the source give for `CCc1ccc(NC(=O)N2CCN(C(=O)C3CCCO3)CC2)cc1` (stereo not shown) here?
Answer: Its value is 2.96%.

Question: Which “hERG current change (%, negative = inhibition) at 10uM” value does the source give for `N#C/C(=C\c1cccs1)C(=O)Nc1nccs1` here?
Answer: The value was 8.87%.

Question: How did the “hERG current change (%, negative = inhibition) at 10uM” value turn out when `COc1cc(S(=O)(=O)NCc2ccccn2)ccc1Cl` was run?
Answer: The value was -10%.

Question: `O=C(Cn1nnc(-c2ccc3c(c2)OCO3)n1)N1CCOCC1` was tested. Which “hERG current change (%, negative = inhibition) at 10uM” value did it give?
Answer: The value was 10.3%.

Question: How did the “hERG current change (%, negative = inhibition) at 10uM” value turn out when `CC(C)(C)NC(=O)/C(=C/c1ccco1)c1ccccc1` was run?
Answer: The value was 0.949%.

Question: Which “hERG current change (%, negative = inhibition) at 10uM” value does the source give for `O=C(c1cccs1)N1CCN(Cc2ccccc2[N+](=O)[O-])CC1` here?
Answer: The value was -17.7%.

Question: `O=C(Cn1nnc(-c2cc(Cl)ccc2-n2cnnn2)n1)N1CCCc2ccccc21` was tested. Which “hERG current change (%, negative = inhibition) at 10uM” value did it give?
Answer: Its value is -30.3%.

Question: Which “hERG current change (%, negative = inhibition) at 10uM” value does the source give for `COc1ccc(CCNC(=O)C2CCN(C(=O)c3ccc(Br)cc3)CC2)cc1OC` here?
Answer: Its value is -12%.

Question: For `CC1CCN(C(=O)CCCN2C(=O)c3cccnc3Oc3ccc(Cl)cc32)CC1`, which “hERG current change (%, negative = inhibition) at 10uM” value is on record?
Answer: Its value is -22.8%.

Question: How did the “hERG current change (%, negative = inhibition) at 10uM” value turn out when `CCn1nc(C)c(CNC(=O)C2CCC(=O)N(Cc3ccc(Cl)cc3)C2)c1C` (stereo not shown) was run?
Answer: The value was 4.64%.

Question: With `CC1(c2ccccc2)NC(=O)N(CC(=O)Nc2ccc(S(N)(=O)=O)cc2)C1=O` (stereo not shown) as the molecule, how does the “hERG current change (%, negative = inhibition) at 10uM” value read?
Answer: Its value is 9.54%.

Question: `Cc1nc(-c2ccc(Br)cc2)ccc1C(=O)O` was tested. Which “hERG current change (%, negative = inhibition) at 10uM” value did it give?
Answer: The value was 4.08%.

Question: With `O=C(NCCC1CCCCN1S(=O)(=O)c1ccc(Cl)cc1)C(=O)NCCN1CCOCC1` (stereo not shown) as the molecule, how does the “hERG current change (%, negative = inhibition) at 10uM” value read?
Answer: Its value is -9.93%.

Question: For `COC(=O)c1cc(-c2cccc(OC)c2)n[nH]1`, which “hERG current change (%, negative = inhibition) at 10uM” value is on record?
Answer: Its value is 7.42%.

Question: With `Cc1ccc(Nc2nc(N)nc(CN3CCN(Cc4ccccc4)CC3)n2)cc1Cl` as the molecule, how does the “hERG current change (%, negative = inhibition) at 10uM” value read?
Answer: Its value is -76.4%.

Question: For `O=C(N[C@@H](Cc1c[nH]c2ccccc12)C(=O)O)c1ccc(Cl)cc1`, which “hERG current change (%, negative = inhibition) at 10uM” value is on record?
Answer: The value was 10.4%.

Question: Which “hERG current change (%, negative = inhibition) at 10uM” value does the source give for `CC(c1ccccc1)N(C)CC(=O)NC(=O)NCCC1=CCCCC1` (stereo not shown) here?
Answer: Its value is -30.7%.

Question: Which “hERG current change (%, negative = inhibition) at 10uM” value does the source give for `O=C(COC(=O)c1c[nH]c2ccccc12)Nc1cccc(F)c1` here?
Answer: The value was 13.9%.

Question: With `O=c1[nH]cnc2scc(C3COc4ccccc4O3)c12` (stereo not shown) as the molecule, how does the “hERG current change (%, negative = inhibition) at 10uM” value read?
Answer: Its value is -12.7%.

Question: `CCN(CC)S(=O)(=O)c1cccc(C(=O)N/N=C(\C)c2ccc(O)cc2O)c1` was tested. Which “hERG current change (%, negative = inhibition) at 10uM” value did it give?
Answer: The value was 12.7%.

Question: Which “hERG current change (%, negative = inhibition) at 10uM” value does the source give for `c1ccc(COC2CCCN(Cc3nc(-c4cnccn4)no3)C2)cc1` (stereo not shown) here?
Answer: Its value is 13.5%.

Question: How did the “hERG current change (%, negative = inhibition) at 10uM” value turn out when `O=C(O)C1CCCCC1C(=O)Nc1ccc(S(=O)(=O)N2CCCCCC2)cc1` (stereo not shown) was run?
Answer: The value was 11%.

Question: `OCC1CCCN(c2ncnc3scc(-c4ccccc4)c23)C1` (stereo not shown) was tested. Which “hERG current change (%, negative = inhibition) at 10uM” value did it give?
Answer: The value was 3.73%.

Question: For `COCc1cc(C)n(CC(=O)Nc2ccccc2C(=O)OC)c(=O)c1C#N`, which “hERG current change (%, negative = inhibition) at 10uM” value is on record?
Answer: Its value is 0.16%.

Question: For `COc1ccc(CNC(=O)CN2C(=O)C(C)N(c3ccc(C)cc3)C2=O)cc1` (stereo not shown), which “hERG current change (%, negative = inhibition) at 10uM” value is on record?
Answer: Its value is -4.38%.

Question: With `Cc1cccc(CSc2nnc(NC(=O)c3ccco3)s2)c1` as the molecule, how does the “hERG current change (%, negative = inhibition) at 10uM” value read?
Answer: Its value is 12.5%.

Question: With `Cc1nc(N2CCN(C(=O)CCC(=O)O)CC2)c2c(C)c(C)sc2n1` as the molecule, how does the “hERG current change (%, negative = inhibition) at 10uM” value read?
Answer: Its value is -1.2%.

Question: For `COc1cc2c(cc1OC)C(C)N(C(=O)Nc1ccc(F)cc1)CC2` (stereo not shown), which “hERG current change (%, negative = inhibition) at 10uM” value is on record?
Answer: Its value is 10.6%.

Question: For `COc1ccc(CN(C)S(=O)(=O)c2ccc3c(c2)OCCO3)cc1`, which “hERG current change (%, negative = inhibition) at 10uM” value is on record?
Answer: Its value is -15.1%.

Question: With `CCOc1cc(CNn2nnnc2N)cc(Cl)c1OCC(=O)NC(C)(C)C` as the molecule, how does the “hERG current change (%, negative = inhibition) at 10uM” value read?
Answer: The value was -13%.

Question: For `C=CCNC(=O)COc1coc(CN2CCN(Cc3ccccc3)CC2)cc1=O`, which “hERG current change (%, negative = inhibition) at 10uM” value is on record?
Answer: Its value is 0.721%.

Question: With `Cc1ccc(N/C=C(\C#N)c2ccc(OCCCF)cc2)cc1` as the molecule, how does the “hERG current change (%, negative = inhibition) at 10uM” value read?
Answer: The value was 5.37%.

Question: How did the “hERG current change (%, negative = inhibition) at 10uM” value turn out when `CNC(=O)NC(=O)Cn1nc2n(c1=O)-c1ccccc1SC2` was run?
Answer: The value was 5.92%.

Question: For `COc1cc(CN2CCN(Cc3ccc(SC)cc3)CC2)cc(OC)c1O.O=C(O)C(=O)O`, which “hERG current change (%, negative = inhibition) at 10uM” value is on record?
Answer: The value was -67.9%.

Question: `Cc1ccc(S(=O)(=O)N2CCCCC2)cc1C(=O)Nc1ccc(S(=O)(=O)Nc2ncccn2)cc1` was tested. Which “hERG current change (%, negative = inhibition) at 10uM” value did it give?
Answer: The value was 11.7%.

Question: Which “hERG current change (%, negative = inhibition) at 10uM” value does the source give for `CN1CCc2c(sc(NC(=O)C3COc4ccccc4O3)c2C(N)=O)C1.Cl` (stereo not shown) here?
Answer: The value was -43.9%.

Question: `COc1cc(C(=O)OCC(=O)NC(=O)NCc2ccccc2)ccc1OC(F)F` was tested. Which “hERG current change (%, negative = inhibition) at 10uM” value did it give?
Answer: The value was 15.9%.

Question: For `CCCCSc1nnc(-c2c[nH]c3ccccc23)n1C`, which “hERG current change (%, negative = inhibition) at 10uM” value is on record?
Answer: The value was -12.4%.

Question: For `CCOc1ccc(NC(=S)Nc2ccccc2C2CC2)cc1`, which “hERG current change (%, negative = inhibition) at 10uM” value is on record?
Answer: Its value is 5.38%.

Question: `CCC(C)NC(=O)C1CCCN(S(=O)(=O)c2ccc3c(c2)CC(C)N3C(C)=O)C1` (stereo not shown) was tested. Which “hERG current change (%, negative = inhibition) at 10uM” value did it give?
Answer: Its value is -10.1%.

Question: With `O=C(NCc1ccco1)c1cc(-c2cccnc2)nc2ccccc12` as the molecule, how does the “hERG current change (%, negative = inhibition) at 10uM” value read?
Answer: Its value is -52.6%.

Question: Which “hERG current change (%, negative = inhibition) at 10uM” value does the source give for `COc1ccc2cc(CN(CC3CCCO3)S(=O)(=O)c3ccccc3)c(=O)[nH]c2c1` (stereo not shown) here?
Answer: Its value is -16.9%.

Question: `N#C/C(=C/c1ccc(N2CCCCC2)cc1)c1cccc(F)c1` was tested. Which “hERG current change (%, negative = inhibition) at 10uM” value did it give?
Answer: The value was 2.8%.

Question: For `OC1CCNC(=S)N1c1ccccc1` (stereo not shown), which “hERG current change (%, negative = inhibition) at 10uM” value is on record?
Answer: The value was 18%.

Question: For `COc1cccc(NC(=O)CN2C(=O)COc3ccc(S(=O)(=O)N4CCC(C)CC4)cc32)c1`, which “hERG current change (%, negative = inhibition) at 10uM” value is on record?
Answer: Its value is 4.62%.

Question: Which “hERG current change (%, negative = inhibition) at 10uM” value does the source give for `CC(C(=O)N1CCCC1)N1CCN(S(=O)(=O)c2ccc(OC(F)(F)F)cc2)CC1` (stereo not shown) here?
Answer: Its value is -22.4%.

Question: With `COC(=O)C1=C(N)Oc2cc(C)n(Cc3ccncc3)c(=O)c2C1c1cccnc1` (stereo not shown) as the molecule, how does the “hERG current change (%, negative = inhibition) at 10uM” value read?
Answer: The value was -14.8%.

Question: Which “hERG current change (%, negative = inhibition) at 10uM” value does the source give for `CCCn1c(C)cc(/C=C(\C#N)C(=O)OCC(=O)N(C)c2c(N)n(Cc3ccccc3)c(=O)[nH]c2=O)c1C` here?
Answer: Its value is -5.6%.

Question: Which “hERG current change (%, negative = inhibition) at 10uM” value does the source give for `Cc1nnc(C)n1N1C(=O)c2cccc3cccc(c23)C1=O` here?
Answer: The value was -0.353%.

Question: With `COc1cccc(OCC(=O)Nc2ccccc2C(=O)Nc2ccc(C(=O)O)cc2)c1` as the molecule, how does the “hERG current change (%, negative = inhibition) at 10uM” value read?
Answer: The value was 23.7%.

Question: Which “hERG current change (%, negative = inhibition) at 10uM” value does the source give for `O=C(Nc1ccccc1)c1cc(S(=O)(=O)Nc2cccnc2)ccc1Cl` here?
Answer: Its value is -3.06%.
